Experimental data: the supplement of paper PMC10441789
This is one part of the list. Antibody binding of pooled human sera (four to six donors per pool; dilution not stated) to peptides of the Trypanosoma cruzi antigen TSSA on microarrays. Quantile-normalised fluorescence in arbitrary units, mean of duplicate arrays; higher = more binding. No active / inactive call. The uninfected pools are read here as the healthy donors of the same country. The strongest signals lie near the top of the scale (about 60,000).

Tests used:
Assay in all cases: antibody binding signal (normalised fluorescence) (arbitrary fluorescence units); higher = stronger serum antibody binding to peptide
[1] = test system: pooled sera of chronic Chagas disease patients, Bolivia
Protocol: (§1)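 Microarray of 15-residue peptides over residues 30-55 of Trypanosoma cruzi TSSAII, each with 1 to 10 substitutions at naturally variable positions, probed with one serum pool per country.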

[2] = test system: pooled sera of chronic Chagas disease patients, Brazil
Protocol: as §1

[3] = test system: pooled sera of chronic Chagas disease patients, Colombia
Protocol: as §1

[4] = test system: pooled sera of chronic Chagas disease patients, Mexico
Protocol: as §1

[5] = test system: pooled sera of chronic Chagas disease patients, USA
Protocol: as §1

[6] = test system: pooled sera of uninfected people, Argentina
Protocol: as §1

[7] = test system: pooled sera of uninfected people, Bolivia
Protocol: as §1

[8] = test system: pooled sera of uninfected people, Brazil
Protocol: as §1

[9] = test system: pooled sera of uninfected people, Colombia
Protocol: as §1

[10] = test system: pooled sera of uninfected people, Mexico
Protocol: as §1

[11] = test system: pooled sera of uninfected people, USA
Protocol: as §1

Sequence	antibody binding signal [1]	antibody binding signal [2]	antibody binding signal [3]	antibody binding signal [4]	antibody binding signal [5]	antibody binding signal [6]	antibody binding signal [7]	antibody binding signal [8]	antibody binding signal [9]	antibody binding signal [10]	antibody binding signal [11]
EKKPAAGGAPSQPGA	307	5390	4900	383	550	282	765	494	134	171	815
SGKENKTATGEAPSP	25000	20500	1960	1930	20200	5950	3180	185	507	611	197
SGKDNKPAAGETPSQ	663	21800	1330	987	2650	704	842	195	678	408	98.6
ISTPPSGKEKKPATG	250	396	237	36800	453	510	552	126	267	96.8	239
SGKENKAATGGAPSQ	683	18700	6270	4380	17600	7780	1900	101	337	238	240
GTENKAAAGETPSQS	1780	15500	5140	7330	4410	119	468	142	234	125	124
DKKTAAGEAPSQSGA	5800	5230	477	496	6370	167	329	171	546	719	140
GTDNKPATGGAPSQS	17700	42600	2350	1130	3720	275	1310	618	215	517	174
PSGTENKAAAGGTPS	20500	45200	6890	5290	10200	1360	717	1480	612	520	300
SGTENKTATGGTPSP	9860	16100	827	867	4080	429	340	349	415	289	170
SGTDKKAAAGGAPSQ	220	1230	9530	1080	765	193	132	178	206	510	177
STPPSGKEKKAAAGG	287	380	2110	28600	944	283	289	140	265	91.6	146
GTENKTATGGAPSQS	857	1060	1140	1880	946	413	492	261	212	490	156
TENKAATGEAPSQSG	46200	39600	190	218	27700	299	165	154	167	210	225
TDNKTAAGEAPSQSG	16400	10700	126	256	7120	119	392	222	158	190	124
GTEKKAATGGAPSPP	209	806	1890	1700	2450	451	1070	109	887	143	148
GKDKKAAAGGTPSQS	233	148	1680	619	1150	124	77.3	458	105	108	91.3
SGKDKKAATGETPSP	309	5810	571	573	8500	366	110	94.7	315	79.4	383
TENKAAAGEAPSQPG	27100	45700	289	235	14200	83.5	150	179	92.7	87.3	124
TEKKPAAGETPSQSG	246	6350	365	398	2030	97.8	271	309	762	320	862
NKAAAGGAPSQPGAS	379	14000	4340	474	459	1070	1340	253	382	252	1400
GKDNKAAAGGAPSPP	183	280	1240	709	801	157	290	97	159	83.1	122
GKDKKPATGGTPSPP	561	246	1070	741	1160	187	132	232	136	129	102
SGTDNKTAAGEAPSP	736	41700	242	248	8430	124	603	1060	187	108	200
KKTATGGTPSQPGAS	474	338	1740	217	1260	490	162	215	199	468	280
GTDKKPAAGGTPSQS	255	913	7290	485	1110	327	260	2010	185	261	215
TENKTATGEAPSPPG	30800	21300	180	159	21000	118	113	219	155	124	107

Sequence	antibody binding signal [1]	antibody binding signal [2]	antibody binding signal [3]	antibody binding signal [4]	antibody binding signal [5]	antibody binding signal [6]	antibody binding signal [7]	antibody binding signal [8]	antibody binding signal [9]	antibody binding signal [10]	antibody binding signal [11]
GTDNKPAAGEAPSPP	801	42600	962	214	15700	138	591	294	110	305	108
SGTENKAAAGEAPSP	8650	24600	548	514	15200	528	292	159	119	124	277
PPSGTENKTAAGGTP	40100	45300	3190	8210	11900	1650	658	1490	623	2390	658
SSTPPSGKDNKPATG	2870	28300	601	20700	13100	364	1650	184	195	266	241
NKTATGGTPSQSGAS	755	2160	540	458	580	873	789	672	315	992	1250
GKDKKPAAGEAPSQP	3770	32800	2510	3310	11900	111	71.6	87.2	122	70.4	67.4
TPPSGTENKPATGGA	45800	47000	442	11000	27600	6030	1790	896	942	845	1100
TENKTATGGAPSQSG	1080	1090	372	798	525	378	237	262	153	594	225
KPATGGAPSPPGASS	1690	556	339	259	1310	359	997	141	145	109	210
GKDNKTATGETPSPP	1170	4160	5070	4280	8100	244	324	154	374	144	699
GKENKTATGGAPSPS	296	9040	4740	5210	14400	430	109	112	114	126	109
DNKAAAGEAPSQPGA	26500	41900	156	186	13700	130	265	183	122	308	124
PPSGKDNKPATGGAP	899	22500	640	8380	11500	921	1660	179	306	193	404
TDNKPAAGEAPSQPG	25800	41900	397	155	15800	101	303	229	103	269	89.6
KEKKAATGETPSPSG	326	2480	167	188	7080	360	104	93.9	225	122	999
KKAATGETPSQSGAS	1430	15100	152	150	8280	365	261	104	305	127	410
GKENKAAAGGTPSQS	395	9390	7280	5120	14600	323	84.9	306	139	121	94.9
KDNKPAAGGAPSQSG	245	1550	510	215	265	221	187	131	152	137	136
TISTPPSGKENKPAT	23300	23300	607	7300	12500	3400	1710	355	617	243	787
SGTEKKTAAGGAPSQ	843	1050	9940	1390	1600	179	414	166	182	176	127
SGTDKKTATGGAPSQ	423	2900	5800	1590	1330	365	385	136	155	556	183
GTDKKAATGGTPSPS	338	339	2340	706	974	209	170	610	779	155	121
DNKPAAGETPSQSGA	631	22100	324	178	3400	88.5	276	321	216	257	98.9
GTEKKTAAGETPSPS	241	356	557	686	3560	140	587	148	623	326	1830
PSGKDNKPAAGGTPS	540	4210	6350	5270	5420	1010	684	261	188	159	142
KDKKPAAGEAPSPPG	209	8140	147	227	11700	122	97.3	93.3	83.4	77.4	76.9
